Measurements: paper PMC4336329 (PLoS ONE, 2015)
About 2,200 (0.71%) of roughly 310,000 compounds showed an effect of 50% or more. Effects have a minus sign here. This is one part of the list.

The compounds below were run against human ether-à-go-go-related gene (hERG) potassium channel (human, UniProt Q12809) (assay: primary screen, population patch clamp on CHO cells stably expressing hERG).
human ether-à-go-go-related gene (hERG) potassium channel, sequence (Q12809 whole entry, looked up): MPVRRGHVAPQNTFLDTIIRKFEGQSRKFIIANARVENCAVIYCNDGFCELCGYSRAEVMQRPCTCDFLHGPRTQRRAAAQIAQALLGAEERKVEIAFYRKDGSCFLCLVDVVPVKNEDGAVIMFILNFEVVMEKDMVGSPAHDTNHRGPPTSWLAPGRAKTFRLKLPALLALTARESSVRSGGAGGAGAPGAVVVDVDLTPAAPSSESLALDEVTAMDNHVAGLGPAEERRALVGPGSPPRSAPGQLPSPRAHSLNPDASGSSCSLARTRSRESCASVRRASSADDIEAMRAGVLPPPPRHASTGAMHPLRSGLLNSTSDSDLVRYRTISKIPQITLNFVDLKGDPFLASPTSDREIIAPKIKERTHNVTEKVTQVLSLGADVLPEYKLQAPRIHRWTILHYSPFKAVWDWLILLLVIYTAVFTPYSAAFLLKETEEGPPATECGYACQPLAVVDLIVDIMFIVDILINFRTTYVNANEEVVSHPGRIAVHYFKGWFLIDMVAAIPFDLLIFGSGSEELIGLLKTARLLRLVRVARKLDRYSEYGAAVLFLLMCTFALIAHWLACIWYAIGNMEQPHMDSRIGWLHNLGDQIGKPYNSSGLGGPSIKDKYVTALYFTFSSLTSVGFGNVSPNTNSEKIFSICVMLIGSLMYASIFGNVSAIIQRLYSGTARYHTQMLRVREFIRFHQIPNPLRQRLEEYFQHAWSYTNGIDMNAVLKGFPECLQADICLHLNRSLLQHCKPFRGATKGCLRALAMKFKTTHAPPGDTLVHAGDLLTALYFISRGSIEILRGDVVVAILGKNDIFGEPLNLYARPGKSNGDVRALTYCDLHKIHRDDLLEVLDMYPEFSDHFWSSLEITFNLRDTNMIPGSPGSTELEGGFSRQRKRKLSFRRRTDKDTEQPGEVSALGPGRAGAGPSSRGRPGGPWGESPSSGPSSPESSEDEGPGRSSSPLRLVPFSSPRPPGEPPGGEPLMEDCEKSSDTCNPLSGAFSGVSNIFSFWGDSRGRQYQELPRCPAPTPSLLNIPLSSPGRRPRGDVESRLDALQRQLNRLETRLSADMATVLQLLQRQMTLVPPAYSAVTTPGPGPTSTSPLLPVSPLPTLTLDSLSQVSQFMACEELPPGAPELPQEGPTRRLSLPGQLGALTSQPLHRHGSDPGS

SMILES | hERG current change (%, negative = inhibition) at 1uM [%]
CCC(=O)NCCc1nc2ccccc2[nH]1 | 6.94
O=C(NC1CC1)c1ccc(-n2cccc2)cc1 | 5.25
COc1cc(/C=N/NC(=O)C(Cc2c[nH]c3ccccc23)NC(=O)OCC(C)C)cc([N+](=O)[O-])c1O (stereo not drawn) | 15.4
CCS(=O)(=O)c1nnnn1-c1ccccc1S(C)(=O)=O | 13.1
COc1cccc(C2CC(=O)Nc3cc4c(cc32)CCC4)c1 (stereo not drawn) | 8.33
Cc1ccsc1C(=O)N[C@@H](C)c1nnc2ccccn12 | 5.07
Cc1ccccc1/C=N/NC(=O)Cn1nnc(N)n1 | 2.13
CCCC1(C(=O)O)NC(c2ccccc2O)C2C(=O)N(c3cccc(Cl)c3)C(=O)C21 (stereo not drawn) | 10.7
COc1cccc(C2c3c(oc4ccc(F)cc4c3=O)C(=O)N2CCN2CCOCC2)c1OC (stereo not drawn) | 4.91
Cc1ccc(-c2noc(CSc3nnc(Cc4ccccc4)n3-c3ccc(Cl)cc3)n2)cc1 | 14.9
CN1CCN(C(=O)c2ccc3nc(-c4ccccc4)c(-c4ccccc4)nc3c2)CC1 | 7
CN(C)CCOc1ccccc1-c1ccccc1.O=C(O)C(=O)O | 3.69
Cc1cccc(C(=O)NC(=S)NCc2ccccc2)c1 | 12.4
Cc1ccc(-c2n[nH]c(=S)n2/N=C/c2c(C)nn(-c3ccccc3)c2C)cc1 | -21
CCc1nc(N)c(C#N)c(-c2ccccc2OC)c1C | 3.88
CCOC(=O)N1N=C(C)CC1(O)c1ccc(Cl)cc1 (stereo not drawn) | 8.73
O=C(O)C(O)(c1ccccc1)C1CCCCC1 (stereo not drawn) | -2.46
CCc1ccc(OCC(=O)NC(NC(=S)Nc2ccc(C)cc2C)C(Cl)(Cl)Cl)cc1 (stereo not drawn) | 0.376
CCOC(=O)Cc1csc(NC(=O)CC(C)(C)CC(=O)O)n1 | 9.7
Cc1ccc(C)c(NC(=S)N2CCC(c3nc4ccccc4s3)CC2)c1 | 3.75
Cc1ccc(Cn2c(=N)c(S(=O)(=O)c3ccc(Br)cc3)cc3c(=O)n4ccccc4nc32)cc1 | 26.5
CC1(c2ccc(OCC#N)cc2)C=C(c2ccc(OCC#N)cc2)n2nc(C(F)(F)F)nc2N1 (stereo not drawn) | -10.7

SMILES | hERG current change (%, negative = inhibition) at 1uM [%]
Cc1ccc(-c2noc(CNC(=O)COc3ccccc3C)n2)cc1 | 0.93
O=C(O)c1cc([N+](=O)[O-])c(N2CCCC2)c([N+](=O)[O-])c1 | -2.79
CC(C)C(=O)Nc1nnc(CSCc2ccccc2F)s1 | -7.85
COc1ccc(CCNC(=O)C(C(=O)c2ccc(F)cc2)n2ccccc2=O)cc1OC (stereo not drawn) | 3.88
Cc1ccc(NC(=O)Cn2nnc(C(=O)NCc3ccc(Cl)cc3)c2N)cc1F | 10.1
C=C1C[C@@]23CCC4[C@@](C)(CCC[C@@]4(C)C(=O)OC)C2CC[C@]1(OC(C)=O)C3 (stereo partly drawn) | 8.87
CN1C(=O)C(CC(=O)Nc2ccc(F)cc2)N(NC(=O)c2cccc(F)c2)C1=S (stereo not drawn) | 7.6
O=C(N/N=C/c1ccc[nH]1)c1ccc2c(c1)OCO2 | 3.63
N#CCCN(C(=O)CSc1nc2nc(-c3cccs3)cc(C(F)(F)F)c2c(=O)[nH]1)c1ccccc1 | 16.3
Fc1cccc(CN2CCN3CCCC3C2C2CCCCC2)c1 (stereo not drawn) | 5.62
CCOC(=O)c1cnc(Nc2nc3ccccc3o2)nc1CSC(=S)N1CCCCC1 | 12.6
COc1cc(C(=O)NCCc2ccccc2)ccc1OCC(=O)N1CCOCC1 | 20.2
CN(C)CC(=O)N1CCc2ccccc2C1.O=C(O)C(=O)O | 17.5
CC(C)(C)NC(=O)CCn1nc(-c2ccc(Cl)cc2)c2ccccc2c1=O | 7.07
CCOC(=O)C1CCN(C(=O)C2CCN(S(=O)(=O)N3CCCC3)CC2)CC1 | -32.9
Cc1cc(-c2nnnn2-c2ccc(C(F)(F)F)cc2)no1 | -0.0584
Cc1nn(-c2ccccc2)c(Cl)c1/C=N/NC(=O)CCNc1n[nH]c(=O)[nH]c1=O | 7.23
O=C(NCC(O)c1ccccc1)Nc1cccs1 (stereo not drawn) | 14.3
CC(=O)N1N=C(c2ccco2)CC1c1cccs1 (stereo not drawn) | 14.6
COc1c2c(nc3occc13)C(CC=C(C)C)(OC)C(O)CC2 (stereo not drawn) | 13.1
COc1ccc(CCC(=O)NCc2cn3ccc(C)cc3n2)cc1 | -3.05
Cc1ccc(/C=C2\NC(=S)NC2=O)cc1[N+](=O)[O-] | 16.9

SMILES | hERG current change (%, negative = inhibition) at 1uM [%]
COc1ccc(NC(=O)CCC(=O)OCc2ccc([N+](=O)[O-])cc2)cc1 | 6.84
COc1ccc(NC(=S)Nc2ccc(S(=O)(=O)N3CCOCC3)cc2)c(OC)c1 | 12.8
CCN(CC)c1ccc(-c2n[nH]c(=S)n2-c2ccccc2)cc1 | 10.5
c1ccc(C2CCC(N3CCC(N4CCCCC4)CC3)CC2)cc1 (stereo not drawn) | 12.2
CCOC(=O)c1cc(-c2ccccc2)n(CC(=O)Nc2ccc(OCC)cc2)c1C | 11.1
CC(C)N(CCCNC(=O)Cn1ncc2c([nH]c3ccccc32)c1=O)Cc1ccccc1 | -12.1
CCCc1cc(=O)[nH]c(SCC(=O)Nc2cccc(S(=O)(=O)N3CCCCC3)c2)n1 | -6.15
Cc1ccc(S(=O)(=O)C(C)C(=O)NCCS(=O)(=O)c2ccc(Cl)cc2)cc1 (stereo not drawn) | 1.7
CCCCn1nc(C(=O)N2CCc3ccccc32)c2ccccc2c1=O | -1.02
O=C1CC(N2CCN(c3ccc(F)cc3)CC2)C(=O)N1c1ccc(F)cc1 (stereo not drawn) | 12.9
COC(CNC(=O)c1ccc2c(c1)nc(C)n2-c1ccc(F)c(F)c1)OC | -12.1
O=C(COc1ccccc1)NCC(=O)N/N=C/c1ccccc1 | 12.9
COc1ccc(CN(C(=O)c2cnccn2)C(C(=O)NC(C)(C)C)c2cc(OC)c(OC)c(OC)c2)cc1 (stereo not drawn) | 0.745
Cc1ccc(S(=O)(=O)N2CC(O)C2)cc1 | 20.1
Cn1c(SCc2nc(-c3ccc(Cl)cc3)no2)nnc1-c1ccccc1 | 4.19
N#Cc1c(C#N)c(-c2ccccc2)n(-c2ccc(C(=O)O)cc2)c1N | 9.65
CNC(=S)/N=C/NOCc1c(Cl)cccc1Cl | 3.32
CC(=O)Nc1ccc(S(=O)(=O)NC(C)c2nc(-c3ccccc3)no2)cc1 (stereo not drawn) | 11.5
COc1ccc(NC(C)=O)cc1CNC(=O)COc1ccccc1C(=O)Nc1cccc(C)c1C | 6.29
C=CCNC(=S)NNC(=O)c1cccc(Br)c1 | 19.2
CCOC(=O)Cc1csc(NS(=O)(=O)c2ccc(NC(C)=O)cc2)n1 | 13.6
Cc1ccc2c(c1)Oc1ccc(NC(=O)CCl)cc1C(=O)N2 | 9.67

SMILES | hERG current change (%, negative = inhibition) at 1uM [%]
NS(=O)(=O)c1ccc(N=Nc2c(O)c(C(=O)O)cc3ccccc23)cc1 | 13.8
Cc1ccc(C)c(NC(=O)c2nnn(Cc3ccccc3C)c2N)c1 | 19
Cc1ccc(-n2c3c(cc(C(=O)NCc4ccco4)c2=O)C(=O)CC(C)(C)C3)cc1 | 14
CCc1ccc(CNC(=O)CCc2cn(C)c3ccccc23)cc1 | 8.36
Cc1ccnc(NC(=O)CNC(=O)c2cccs2)c1 | 9.92
C#CC1(O)CC(C)N(C)C(C)C1.Cl (stereo not drawn) | 6.28
CN(C)CC[C@@H](c1ccc(Br)cc1)c1ccccn1.O=C(O)/C=C\C(=O)O | -1.19
O=[N+]([O-])c1ccc(SCCc2ccncc2)cc1 | -24.4
COc1ccc(C)cc1NC(=O)C(OC(=O)CNC(=O)c1ccc(Br)cc1)c1ccccc1 (stereo not drawn) | 11.1
N#Cc1nc(Nc2cc(F)cc(F)c2)c2ncn(CC(F)F)c2n1 | 19.5
Cc1cc(C(=O)Nc2ccc(F)c(Cl)c2)on1 | 16.8
CC(=O)N1CCN(S(=O)(=O)c2ccc(F)c(Cl)c2)CC1 | 7.48
COCC(=O)OCC(=O)N1N=C(c2ccc(Cl)cc2)CC1c1ccco1 (stereo not drawn) | 13.1
Cc1ccc(NC(=O)[C@H](Cc2ccccc2)NC(=O)C2CCNCC2)cc1 | 7.62
CC1=C(C(=O)OCc2ccccc2)C(c2ccc(Br)cc2)NC(=O)N1CCCC(=O)O (stereo not drawn) | 13.6
O=C(Nc1cccc(O)c1)c1ccc2c(c1)C(=O)N(Cc1ccco1)C2=O | 4.23
Cc1ccc(S(=O)(=O)N(C)C)cc1NC(=O)C(C)Sc1ccccc1 (stereo not drawn) | 6.62
CC(CCc1ccco1)NC(=O)Cn1nc(Cc2ccncc2)c2ccccc2c1=O (stereo not drawn) | -20.2
O=C(Nc1ccccc1)N(Cc1ccccc1)CC(O)C(F)(F)F (stereo not drawn) | 14.5
C=CCOc1ccc(CN(C)CC(=O)N(CC(C)C)c2c(N)n(CC(C)C)c(=O)[nH]c2=O)cc1 | 13.3
COc1cc(/C=C2\C(=O)N(CCC#N)N=C2C)ccc1OCC(=O)Nc1ccccc1 | 1.11
